These are yes or no findings as the source states them, for the method shown. For part of these data: Binding seen in cells or lysates may run through a third protein. Some binding calls cover weakened binding; strength is not graded here. For part of these data: Tags and fused reporters may be left off the sequences shown. Blank lines part the entries; values can stand above or below the binder they belong to.
Experiments:
[1] = target: T1, GOLPH2-IIIA (amino acids 56–152) (human) (UniProt Q8NBJ4); test: two-hybrid; Matchmaker GAL4 Two-Hybrid System 3; AH109 (pGBKT7 fusions) mated with Y187 (pGADT7 fusions); growth on SD/-Trp/-Leu/-His/-Ade (++) or SD/-Trp/-Leu/-Ade with 1 mM 3-AT (+), 30°C, 3 d to 8 d
T1 sequence: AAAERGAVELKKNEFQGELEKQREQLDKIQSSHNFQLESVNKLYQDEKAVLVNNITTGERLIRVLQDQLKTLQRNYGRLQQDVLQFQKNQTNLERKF

[2] = target: T2, GOLPH2-III–IV–V (two-hybrid fragment) (human) (UniProt Q8NBJ4); test: as above
T2 sequence: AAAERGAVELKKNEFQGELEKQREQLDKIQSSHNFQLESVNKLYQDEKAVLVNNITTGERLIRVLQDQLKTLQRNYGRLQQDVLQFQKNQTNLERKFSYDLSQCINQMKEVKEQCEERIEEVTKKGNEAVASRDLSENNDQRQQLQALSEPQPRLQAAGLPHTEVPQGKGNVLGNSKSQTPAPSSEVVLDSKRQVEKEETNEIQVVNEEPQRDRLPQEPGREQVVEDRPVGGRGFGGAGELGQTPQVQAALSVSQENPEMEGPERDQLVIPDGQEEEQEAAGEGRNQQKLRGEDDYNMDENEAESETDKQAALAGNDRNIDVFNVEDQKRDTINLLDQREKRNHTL

[3] = target: GOLPH2-Δ(1–55) C159A-C170A (human) (UniProt Q8NBJ4); test: condition: only in SDS (non-reducing SDS-PAGE, which keeps only disulfide-linked dimers); SDS-PAGE under non-reducing and reducing conditions; purified GOLPH2-Δ(1–55) and cysteine mutants boiled with 0 to 100 mM 2-mercaptoethanol, 10% SDS-PAGE; shows disulfide-linked oligomers; both purified
[4] = target: T3, GOLPH2-Δ(IV–V) (amino acids 1–205) (human) (UniProt Q8NBJ4); test: co-IP; HeLa cells co-transfected with FLAG-tagged fragments and untagged full-length GOLPH2; 1% Triton X-100 lysis buffer (20 mM HEPES pH 7.3, 100 mM KCl, 5 mM EDTA), anti-FLAG M2, protein A/G beads, 4°C; immunoblot with GOLPH2 antibody
T3 sequence: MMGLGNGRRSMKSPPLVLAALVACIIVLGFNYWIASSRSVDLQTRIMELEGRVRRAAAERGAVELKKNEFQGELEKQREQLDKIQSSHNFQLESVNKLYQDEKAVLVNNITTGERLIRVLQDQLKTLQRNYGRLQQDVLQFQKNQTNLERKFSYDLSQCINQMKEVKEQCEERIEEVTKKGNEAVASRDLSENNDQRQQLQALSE

[5] = target: T4, GOLPH2-Δ(I–II–III) (amino acids 206–401) (human) (UniProt Q8NBJ4); test: as above
T4 sequence: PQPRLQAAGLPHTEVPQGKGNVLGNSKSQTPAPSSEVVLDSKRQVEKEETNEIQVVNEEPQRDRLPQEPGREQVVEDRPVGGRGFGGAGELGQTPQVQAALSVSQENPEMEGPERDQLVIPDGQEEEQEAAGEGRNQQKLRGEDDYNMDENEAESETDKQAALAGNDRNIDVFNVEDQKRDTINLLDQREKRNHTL

[6] = target: T5, GOLPH2-Δ(I–II–IV–V) (amino acids 56–205) (human) (UniProt Q8NBJ4); test: as above
T5 sequence: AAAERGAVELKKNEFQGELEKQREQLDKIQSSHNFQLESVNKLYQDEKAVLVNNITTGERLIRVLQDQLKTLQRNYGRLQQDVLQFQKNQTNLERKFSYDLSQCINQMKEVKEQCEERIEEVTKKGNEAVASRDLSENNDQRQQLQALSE

[7] = target: GOLPH2-FLAG (wild-type, full length) (human) (UniProt Q8NBJ4); test: SDS-PAGE under non-reducing conditions with immunoblot; lysates of HeLa cells 36 h after transfection with pCR3.1-GOLPH2-FLAG or mutants; immunoblot with FLAG antibody
[8] = target: intracellular GOLPH2 from HeLa cell lysate (human (endogenous in HeLa)) (UniProt Q8NBJ4); test: SDS-PAGE under non-reducing and reducing conditions with immunoblot; HeLa cell lysate, normal human urine or HeLa supernatant boiled with 0 or 140 mM 2-mercaptoethanol; immunoblot with GOLPH2 antibody
[9] = target: GOLPH2-FLAG C159A (human) (UniProt Q8NBJ4); test: SDS-PAGE under non-reducing conditions with immunoblot; lysates of HeLa cells 36 h after transfection with pCR3.1-GOLPH2-FLAG or mutants; immunoblot with FLAG antibody
[10] = target: GOLPH2-FLAG C170A (human) (UniProt Q8NBJ4); test: as above

B1: GOLPH2-Δ(1–55) (domain or fragment, human, UniProt Q8NBJ4 56-401, looked up)
chain: AAAERGAVELKKNEFQGELEKQREQLDKIQSSHNFQLESVNKLYQDEKAVLVNNITTGERLIRVLQDQLKTLQRNYGRLQQDVLQFQKNQTNLERKFSYDLSQCINQMKEVKEQCEERIEEVTKKGNEAVASRDLSENNDQRQQLQALSEPQPRLQAAGLPHTEVPQGKGNVLGNSKSQTPAPSSEVVLDSKRQVEKEETNEIQVVNEEPQRDRLPQEPGREQVVEDRPVGGRGFGGAGELGQTPQVQAALSVSQENPEMEGPERDQLVIPDGQEEEQEAAGEGRNQQKLRGEDDYNMDENEAESETDKQAALAGNDRNIDVFNVEDQKRDTINLLDQREKRNHTL
notes: Golgi phosphoprotein 2 (GOLPH2, GP73, GOLM1), human, residues 1-55 deleted; C-terminal luminal region, amino acids 56-401; also called purified wild-type GOLPH2; GOLPH2-Δ(1–55) fusion protein; source: E. coli BL21 (DE3), pET22b(+), purified (Ni-NTA)
- binding [1]: binds
- binding [2]: binds

B2: GOLPH2-Δ(1–55) C159A-C170A (domain or fragment, human, UniProt Q8NBJ4 56-401, looked up)
chain: AAAERGAVELKKNEFQGELEKQREQLDKIQSSHNFQLESVNKLYQDEKAVLVNNITTGERLIRVLQDQLKTLQRNYGRLQQDVLQFQKNQTNLERKFSYDLSQAINQMKEVKEQAEERIEEVTKKGNEAVASRDLSENNDQRQQLQALSEPQPRLQAAGLPHTEVPQGKGNVLGNSKSQTPAPSSEVVLDSKRQVEKEETNEIQVVNEEPQRDRLPQEPGREQVVEDRPVGGRGFGGAGELGQTPQVQAALSVSQENPEMEGPERDQLVIPDGQEEEQEAAGEGRNQQKLRGEDDYNMDENEAESETDKQAALAGNDRNIDVFNVEDQKRDTINLLDQREKRNHTL
notes: GOLPH2 (GP73, GOLM1), human, residues 1-55 deleted (amino acids 56-401), C159A and C170A; Monomer on non-reducing SDS-PAGE, same migration as the wild type on native-PAGE; also called double mutant C159A–C170A; source: E. coli BL21 (DE3), pET22b(+), purified (Ni-NTA)
- binding [3]: no binding

B3: GOLPH2-IIIA (amino acids 56–152) (domain or fragment, UniProt Q8NBJ4 56-152)
chain: AAAERGAVELKKNEFQGELEKQREQLDKIQSSHNFQLESVNKLYQDEKAVLVNNITTGERLIRVLQDQLKTLQRNYGRLQQDVLQFQKNQTNLERKF
- binding [1]: binds
- binding [2]: binds

B5: GOLPH2-FLAG (wild-type, full length) (natural protein, human, UniProt Q8NBJ4 1-401, looked up)
chain: MMGLGNGRRSMKSPPLVLAALVACIIVLGFNYWIASSRSVDLQTRIMELEGRVRRAAAERGAVELKKNEFQGELEKQREQLDKIQSSHNFQLESVNKLYQDEKAVLVNNITTGERLIRVLQDQLKTLQRNYGRLQQDVLQFQKNQTNLERKFSYDLSQCINQMKEVKEQCEERIEEVTKKGNEAVASRDLSENNDQRQQLQALSEPQPRLQAAGLPHTEVPQGKGNVLGNSKSQTPAPSSEVVLDSKRQVEKEETNEIQVVNEEPQRDRLPQEPGREQVVEDRPVGGRGFGGAGELGQTPQVQAALSVSQENPEMEGPERDQLVIPDGQEEEQEAAGEGRNQQKLRGEDDYNMDENEAESETDKQAALAGNDRNIDVFNVEDQKRDTINLLDQREKRNHTL
notes: Golgi phosphoprotein 2 (GOLPH2, GP73, GOLM1), human, full-length cDNA from Huh7 cells; also called pCR3.1-GOLPH2-FLAG; wild-type GOLPH2; source: HeLa, transfected, in lysate; not shown: FLAG, C-terminal, kept
- binding [7]: binds

B7: GOLPH2-FLAG C159A (protein, UniProt Q8NBJ4 1-401)
chain: MMGLGNGRRSMKSPPLVLAALVACIIVLGFNYWIASSRSVDLQTRIMELEGRVRRAAAERGAVELKKNEFQGELEKQREQLDKIQSSHNFQLESVNKLYQDEKAVLVNNITTGERLIRVLQDQLKTLQRNYGRLQQDVLQFQKNQTNLERKFSYDLSQAINQMKEVKEQCEERIEEVTKKGNEAVASRDLSENNDQRQQLQALSEPQPRLQAAGLPHTEVPQGKGNVLGNSKSQTPAPSSEVVLDSKRQVEKEETNEIQVVNEEPQRDRLPQEPGREQVVEDRPVGGRGFGGAGELGQTPQVQAALSVSQENPEMEGPERDQLVIPDGQEEEQEAAGEGRNQQKLRGEDDYNMDENEAESETDKQAALAGNDRNIDVFNVEDQKRDTINLLDQREKRNHTL
- binding [9]: binds

B8: GOLPH2-FLAG C170A (protein, UniProt Q8NBJ4 1-401)
chain: MMGLGNGRRSMKSPPLVLAALVACIIVLGFNYWIASSRSVDLQTRIMELEGRVRRAAAERGAVELKKNEFQGELEKQREQLDKIQSSHNFQLESVNKLYQDEKAVLVNNITTGERLIRVLQDQLKTLQRNYGRLQQDVLQFQKNQTNLERKFSYDLSQCINQMKEVKEQAEERIEEVTKKGNEAVASRDLSENNDQRQQLQALSEPQPRLQAAGLPHTEVPQGKGNVLGNSKSQTPAPSSEVVLDSKRQVEKEETNEIQVVNEEPQRDRLPQEPGREQVVEDRPVGGRGFGGAGELGQTPQVQAALSVSQENPEMEGPERDQLVIPDGQEEEQEAAGEGRNQQKLRGEDDYNMDENEAESETDKQAALAGNDRNIDVFNVEDQKRDTINLLDQREKRNHTL
- binding [10]: binds

Other lines, results leading:

- binding [4]: binds
- binding [5]: no binding
- binding [6]: binds
B4: full length GOLPH2 (without FLAG tag) (protein, UniProt Q8NBJ4 1-401)
chain: MMGLGNGRRSMKSPPLVLAALVACIIVLGFNYWIASSRSVDLQTRIMELEGRVRRAAAERGAVELKKNEFQGELEKQREQLDKIQSSHNFQLESVNKLYQDEKAVLVNNITTGERLIRVLQDQLKTLQRNYGRLQQDVLQFQKNQTNLERKFSYDLSQCINQMKEVKEQCEERIEEVTKKGNEAVASRDLSENNDQRQQLQALSEPQPRLQAAGLPHTEVPQGKGNVLGNSKSQTPAPSSEVVLDSKRQVEKEETNEIQVVNEEPQRDRLPQEPGREQVVEDRPVGGRGFGGAGELGQTPQVQAALSVSQENPEMEGPERDQLVIPDGQEEEQEAAGEGRNQQKLRGEDDYNMDENEAESETDKQAALAGNDRNIDVFNVEDQKRDTINLLDQREKRNHTL

- binding [8]: binds
B6: intracellular GOLPH2 from HeLa cell lysate (protein, UniProt Q8NBJ4 1-401)
chain: MMGLGNGRRSMKSPPLVLAALVACIIVLGFNYWIASSRSVDLQTRIMELEGRVRRAAAERGAVELKKNEFQGELEKQREQLDKIQSSHNFQLESVNKLYQDEKAVLVNNITTGERLIRVLQDQLKTLQRNYGRLQQDVLQFQKNQTNLERKFSYDLSQCINQMKEVKEQCEERIEEVTKKGNEAVASRDLSENNDQRQQLQALSEPQPRLQAAGLPHTEVPQGKGNVLGNSKSQTPAPSSEVVLDSKRQVEKEETNEIQVVNEEPQRDRLPQEPGREQVVEDRPVGGRGFGGAGELGQTPQVQAALSVSQENPEMEGPERDQLVIPDGQEEEQEAAGEGRNQQKLRGEDDYNMDENEAESETDKQAALAGNDRNIDVFNVEDQKRDTINLLDQREKRNHTL

— article PMC3226628, “The Golgi Localization of GOLPH2 (GP73/GOLM1) Is Determined by the Transmembrane and Cytoplamic Sequences” (PLoS ONE, 2011)
